# Experimental data: PubChem BioAssay AID463173 (ICCB-Longwood Screening Facility, Harvard Medical School, 2010)
# The campaign covered roughly 52,000 compounds. About 1,700 (3.3%) were called active. Cut-off read from the data, not from the text of the source: active = survival mostly below about 52% (no sharp cut-off); inactive = mostly above about 56%. This is one part of the list.
# System: Wild type
# Assay: growth inhibition of S. aureus wild type versus tarO mutant, primary screen, teichoic acid synthesis inhibitors, RN4220, OD600 (AID 463173)
# Conditions: S. aureus RN4220 wild type/DeltatarO growth, OD600, 18 h, stronger effect = lower value, screened at 18.75 µg/mL (by protocol)
row,SMILES,survival
1,CC(OC(=O)c1nsc(Cl)c1Cl)C(=O)NCc1cccs1 (stereo unspecified),inactive: 111%
2,CCOc1ccc(-n2nc(CO)c(C(=O)NCc3ccc(Cl)cc3)n2)cc1,inactive: 87%
3,CC(=O)c1ccc(NC(=O)CSc2cn(CC(=O)N3CCCCC3)c3ccccc23)cc1,inactive: 88%
4,CCOc1ccc(-c2cn(-c3ccc(OC)cc3)c(SCC(=O)Nc3ccccc3Cl)n2)cc1,inactive: 78%
5,COc1ccc(F)cc1S(=O)(=O)NCCc1csc(-c2ccc(Cl)cc2)n1,inactive: 82%
6,CCc1ccc(NC(=O)C2CCN(c3nnc(-n4c(C)ccc4C)s3)CC2)cc1,inactive: 82%
7,CCC(=O)Nc1sc2c(c1C(=O)Nc1ccc(OC)cc1)CCC(C(C)(C)C)C2 (stereo unspecified),active: 2%
8,CC(C)(CN)C(O)C(=O)O (stereo unspecified),inactive: 104%
9,Cc1cc(C)c(S(=O)(=O)NCCc2cc3c(C)ccc(C)c3[nH]c2=O)c(C)c1,inactive: 77%
10,Cc1ccc(NC(=O)C2Cc3ccccc3N2C(=O)c2ccccc2)cc1Cl (stereo unspecified),inactive: 74%
11,O=C(Nc1ccc(S(=O)(=O)N2CCC(c3nc4ccccc4s3)CC2)cc1)c1ccc(F)cc1,inactive: 89%
12,Nc1no[n+]([O-])c1C(=O)NCCO,inactive: 101%
13,Cc1ccc(C)c(-n2nnc(-c3nc(-c4ccc(Cl)cc4)no3)c2N)c1,inactive: 96%
14,CCCC(=O)NCCc1nc2ccccc2n1Cc1c(F)cccc1Cl,inactive: 66%
15,COc1ccc(OC)c(NC(=O)CSC2=Nc3ccccc3C3=NC(CC(=O)NCc4ccco4)C(=O)N23)c1 (stereo unspecified),inactive: 95%
16,CC1C(=O)NN=C1C(=O)N/N=C\c1cccnc1 (stereo unspecified),inactive: 111%
17,COc1ccc(NC(=O)c2sc3nc(C)c(C(=O)Nc4ccc(C)cc4C)c(-c4ccc(Cl)cc4)c3c2N)cc1,inactive: 71%
18,O=C(NCc1ccc2c(c1)CCN2C(=O)c1ccncc1)c1cccc(Cl)c1,inactive: 83%
19,Cc1oc(-c2ccccc2F)nc1CS(=O)(=O)CC(=O)N1CCN(c2cccc(C(F)(F)F)c2)CC1,inactive: 76%

row,SMILES,survival
1,N#Cc1ccc(C(=O)Nc2ccc(Cl)c(-c3nc4cc(Cl)ccc4o3)c2)c(F)c1,inactive: 58%
2,Cc1ccc(C(=O)NCC(c2cccs2)S(=O)(=O)c2cccs2)cc1C (stereo unspecified),inactive: 80%
3,Fc1ccc(CNCc2ccccc2)cc1,inactive: 110%
4,CCOc1ccc(NC(=O)CN(C)S(=O)(=O)c2ccc3c(c2)c(=O)n(C)c(=O)n3C)cc1,inactive: 82%
5,COc1cc(OC)cc(C(=O)Nc2cc(-c3nc4ccccc4s3)ccc2OC)c1,inactive: 67%
6,Cc1ccc(NC(=O)c2cccc(NC(=O)N3CCSc4ncccc43)c2)cc1Cl,inactive: 63%
7,COc1ccc(N2CCN(C(=O)Cn3ncc4c3-c3cc(C)ccc3OC4)CC2)cc1,inactive: 129%
8,COc1ccc(-c2nc3sc(CCNC(=O)C(=O)Nc4cc(C)cc(C)c4)c(C)n3n2)cc1,inactive: 89%
9,CCN(C(=O)c1nn(-c2ccc(OC)c(Cl)c2)c(=O)c2c1c1ccccc1n2C)c1cc(OC)ccc1OC,inactive: 91%
10,O=C(NCC(c1ccc(Cl)cc1)N1CCCCC1)c1ccc(F)cc1 (stereo unspecified),inactive: 85%
11,COc1ccc(C(=O)NCC(c2cccnc2)N2CCN(c3ccc(F)cc3)CC2)cc1 (stereo unspecified),inactive: 84%
12,COc1cccc(-c2cc(C(F)(F)F)nc(-n3nc(C)c(Br)c3C)n2)c1,inactive: 80%
13,CC(=O)Nc1nonc1NC(C)=O,inactive: 104%
14,Nc1nc(N)c(S(=O)(=O)c2ccccc2)c(Nc2ccc(Br)cc2)n1,inactive: 65%
15,O=C(CSc1ccc2nc(-c3ccccc3)cn2n1)Nc1ccccc1C(F)(F)F,inactive: 73%
16,Cc1ccc(-n2c(SCc3ccccc3F)nc3[nH]ncc3c2=O)cc1C,inactive: 80%
17,COc1ccccc1CNC(=O)c1cccn1-c1nnc(N2CCCC2)s1,inactive: 81%
18,Cc1cccc(NC(=O)Cn2nc(-c3ccc(Cl)cc3)c3ccccc3c2=O)c1,inactive: 133%
19,CCC(c1ccc(F)cc1)n1cc(C(=O)NCCc2ccco2)nn1 (stereo unspecified),inactive: 103%

row,SMILES,survival
1,CCOc1cccc2cc(-c3nc4sc(C(=O)Nc5ccc(C)cc5)c(C)c4c(=O)[nH]3)c(=O)oc12,inactive: 90%
2,O=S(=O)(c1cccc(S(=O)(=O)N2CCOCC2)c1)N1CCCCCC1,inactive: 98%
3,O=C(Nc1cccc(-c2nc3ncccc3o2)c1)c1ccc(-c2cccc(Cl)c2Cl)o1,inactive: 79%
4,Cc1cccc(NC(=O)C(=O)c2cc(C)n(-c3ccccc3)c2C)c1C,inactive: 79%
5,Cc1cc(O)c(C(c2cccc(F)c2)N2CCC(C)CC2)c(=O)n1Cc1ccco1 (stereo unspecified),inactive: 85%
6,O=C(Cn1c(=O)n(Cc2cccs2)c(=O)c2cccnc21)Nc1ccccc1F,inactive: 75%
7,O=C(NCCc1ccc(Cl)cc1)c1cccn1-c1nnc(N2CCCCC2)s1,inactive: 88%
8,COc1ccc(N2CCN(C(=O)CSCc3nc(-c4ccccc4Cl)oc3C)CC2)cc1,inactive: 64%
9,CCc1nc(-c2cc(S(=O)(=O)N3CCN(c4ccc(F)cc4)CC3)ccc2OC)no1,inactive: 85%
10,CN(C1CCCCC1)S(=O)(=O)c1ccc(C(=O)Nc2sc3c(c2C(N)=O)CC(C)(C)NC3(C)C)cc1,inactive: 77%
11,CC(=O)c1cc(-c2ccccc2)n(CC(=O)NC2CCCCCC2)c1C,inactive: 132%
12,O=C(Nc1cccc(C(F)(F)F)c1)c1noc2c1CCc1ccccc1-2,inactive: 83%
13,Cc1cccc(NC(=O)CSc2nc3c(c(=O)[nH]2)CN(Cc2ccc4c(c2)OCO4)CC3)c1C,inactive: 88%
14,CCc1ccc(-n2c(=O)c3cccnc3n2CC(=O)NCc2ccc(F)cc2)cc1,inactive: 67%
15,O=c1c2c3c(sc2nc2n1CCCCC2)C(O)CCC3 (stereo unspecified),inactive: 101%
16,CNC(=O)c1ccc(Nc2nnc(-c3ccc(C)c(S(=O)(=O)NC(C)(C)C)c3)c3ccccc23)cc1,inactive: 97%
17,Cn1c(=O)c(=O)n(C)c2cc(S(=O)(=O)N3CCN(c4ccccc4F)CC3)ccc21,inactive: 84%
18,O=C(NCc1cccc(F)c1)c1ccc(CS(=O)c2ccccc2Cl)o1 (stereo unspecified),inactive: 96%
